Results: PMC4336329 (PLoS ONE, 2015)
Hit rate of the full screen: of about 310,000 compounds, about 14,000 (4.5%) showed an effect of 50% or more. The effect is printed as a negative number. The list shows a part of the results.

target: human ether-à-go-go-related gene (hERG) potassium channel (human, UniProt Q12809); assay: primary screen, population patch clamp on CHO cells stably expressing hERG
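Also: peak tail current of the secondary pulse compared with the same well before compound.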

human ether-à-go-go-related gene (hERG) potassium channel, sequence (Q12809 whole entry, looked up): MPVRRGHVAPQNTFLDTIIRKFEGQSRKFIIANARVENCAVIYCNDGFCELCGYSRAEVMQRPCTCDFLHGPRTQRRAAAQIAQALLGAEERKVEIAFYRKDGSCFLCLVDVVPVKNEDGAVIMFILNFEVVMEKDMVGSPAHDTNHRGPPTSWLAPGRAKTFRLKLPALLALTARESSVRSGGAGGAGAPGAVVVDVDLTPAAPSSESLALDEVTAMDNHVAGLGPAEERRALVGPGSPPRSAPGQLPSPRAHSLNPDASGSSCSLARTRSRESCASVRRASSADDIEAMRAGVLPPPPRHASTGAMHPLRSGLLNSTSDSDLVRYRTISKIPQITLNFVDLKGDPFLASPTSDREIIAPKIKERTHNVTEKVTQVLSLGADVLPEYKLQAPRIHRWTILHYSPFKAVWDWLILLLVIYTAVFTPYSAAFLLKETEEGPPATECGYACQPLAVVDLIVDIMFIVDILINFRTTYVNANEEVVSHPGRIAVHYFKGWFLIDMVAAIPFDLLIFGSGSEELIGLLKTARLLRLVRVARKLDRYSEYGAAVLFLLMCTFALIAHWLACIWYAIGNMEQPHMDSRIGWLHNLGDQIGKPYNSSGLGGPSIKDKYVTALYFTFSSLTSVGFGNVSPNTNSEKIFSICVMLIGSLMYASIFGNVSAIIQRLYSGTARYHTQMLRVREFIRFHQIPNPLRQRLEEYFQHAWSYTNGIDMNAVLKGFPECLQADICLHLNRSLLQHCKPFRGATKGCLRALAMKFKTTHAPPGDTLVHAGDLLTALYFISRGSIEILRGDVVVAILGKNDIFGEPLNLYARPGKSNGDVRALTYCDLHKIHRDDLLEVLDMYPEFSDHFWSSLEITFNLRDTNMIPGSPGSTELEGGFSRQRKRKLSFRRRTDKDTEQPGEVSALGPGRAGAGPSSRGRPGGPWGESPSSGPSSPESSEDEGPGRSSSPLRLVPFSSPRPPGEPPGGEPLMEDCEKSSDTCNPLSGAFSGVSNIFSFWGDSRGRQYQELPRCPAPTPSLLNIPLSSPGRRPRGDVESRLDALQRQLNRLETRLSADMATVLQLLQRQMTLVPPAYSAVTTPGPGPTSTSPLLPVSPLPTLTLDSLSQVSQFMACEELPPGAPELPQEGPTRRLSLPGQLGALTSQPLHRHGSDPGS

SMILES	hERG current change (%, negative = inhibition) at 10uM
COc1ccc(-n2ncc3c2CC(C)(C)CC3NC(=O)c2ocnc2C)cc1 (stereo not drawn)	-53.5%
CCCCN(CCCC)CCNC(=O)c1cn(CC)c2ccc(S(=O)(=O)N(C)C3CCCCC3)cc2c1=O	-82.5%
O=C(Nc1cc(S(=O)(=O)N2CCCCC2)ccc1O)c1ccccc1NS(=O)(=O)c1ccc(F)c(F)c1	1.39%
O=C(c1ccco1)N1CCN(C(=O)C2CCCN(S(=O)(=O)c3cccc4nsnc34)C2)CC1 (stereo not drawn)	-7.17%
N#Cc1c(-c2ccccc2)[nH]c(=O)[nH]c1=O	12.6%
O=C(Nc1cccc(NC(=O)c2cccs2)c1)c1ccc2c(c1)OCO2	-8.01%
Cc1cc2n(n1)SC(Nc1cccc3ccccc13)N2 (stereo not drawn)	-11.9%
CCCC(C(=O)NCCC(C)C)N(Cc1ccccc1)C(=O)c1snc(C(N)=O)c1N (stereo not drawn)	-5.39%
O=Cc1cn[nH]c1-c1ccccc1	19.1%
CCN(CC)CC(=O)Nc1nc(-c2ccc(Cl)cc2)cs1	-35.8%
O=C(CCn1cccc1)Nc1ccc(F)cc1	-5.36%
Cc1cc(S(=O)(=O)N2CCOCC2)ccc1OCC(=O)Nc1ccc(F)c(Cl)c1	14.7%
COC(=O)CN(C)C(=O)c1ccc2nc(Cc3cccc(Cl)c3)oc2c1	10.3%
O=C(COc1ccc(Br)cc1CNCCCN1CCOCC1)Nc1ccccc1	-47.8%
CCCCNC(=S)N(Cc1ccco1)Cc1cc2cc3c(cc2[nH]c1=O)OCCO3	-3.06%
O=C1/C(=C\c2cccc(O)c2O)SC(=S)N1Cc1ccccc1	17.2%
NC(=O)C1(N2CCCCC2)CCN(CC(=O)Nc2cc(Cl)ccc2Cl)CC1	-72%
CCOC(=O)CN(C(=O)CN1CCC(n2nnc3cc(C)ccc32)CC1)c1ccccc1	-53.8%
CC(C)NC(=O)C(=O)NCCC1CCCCN1S(=O)(=O)c1cccs1 (stereo not drawn)	2.16%
CCC(C)Nc1nc(Cl)nc(N(C#N)CN2C(=O)c3ccccc3S2(=O)=O)n1 (stereo not drawn)	7.9%
CCCOc1c(Cl)cc(C(=O)NC)cc1OC	0.0514%
Cc1ccc(S(=O)(=O)N2CCC(C(=O)Nc3ccc4c(c3)OCO4)CC2)cc1	2.72%
Cc1sc2nc(COC(=O)Cc3ccccc3)[nH]c(=O)c2c1C	10.5%
Cc1cccc(-c2nc3sc(C)cc3c(=O)o2)c1	28.8%
COc1ccc(N(CC(=O)NCc2ccc(F)cc2)C(=O)CCC(=O)Nc2ccccn2)cc1	-4.31%
CC(NC(=O)C1CCN(S(=O)(=O)c2ccc3nc4c(c(C(=O)O)c3c2)CCCC4)CC1)c1ccccc1 (stereo not drawn)	4.75%
Cc1cccc(Cc2nnc(CCC(=O)N(CC3CC3)CC3CCCO3)o2)c1 (stereo not drawn)	-4.05%

SMILES	hERG current change (%, negative = inhibition) at 10uM
O=C(CSc1nc(-c2cccs2)cc(C(F)(F)F)n1)Nc1cc(OCC(F)(F)F)cc([N+](=O)[O-])c1	9.54%
COc1ccc(CCC(C)NCc2ccc(C(F)(F)F)cc2)cc1 (stereo not drawn)	-66.3%
Cc1cccc(COc2ccc(/C=N/NC(=O)c3nnn(-c4nonc4N)c3COc3ccc(F)cc3)cc2)c1	11%
CC1(C)CC(=O)C/C(=N/NC(=O)COc2ccc3ccccc3c2Br)C1	3.85%
CC(C)(C)NC(=O)CN(CC1CCCO1)C(=O)CNS(=O)(=O)c1ccc(F)cc1 (stereo not drawn)	25.7%
Cl.O=C(c1ccco1)N1CCN(Cc2nnnn2CCc2ccccc2)CC1	-29.5%
CC(=O)N1N=C(c2cccs2)CC1c1ccc(Br)cc1 (stereo not drawn)	-10.1%
Cc1ccc(NC(=O)CSc2nc(=O)n3cc(C)ccc3n2)c(C)c1	-11.4%
COc1cc(C(=O)Nc2nnc(CC(=O)N3CCOCC3)s2)cc(OC)c1OC	13.3%
COc1ccc2c(c1)O[C@@H](c1cccc(C(F)(F)F)c1)[C@H](OC(=O)NCCc1ccc(OC)c(OC)c1)C2=O	-0.231%
Cc1ccc(/C=c2\s/c(=C(/C#N)C(=O)N3CCCC3)n(Cc3ccco3)c2=O)s1	0.109%
COc1ccc(C(=O)Nc2nc3ccc(OC)cc3s2)cc1	12.6%
O=C(CN1CCN(Cc2ccccc2)CC1)Nc1ccc(Cl)cc1	-68.4%
Cc1n[nH]c(C)c1S(=O)(=O)N1CCOCC1	0.207%
O=C(c1ccc(CS(=O)c2cccc(Cl)c2)o1)N1CCOCC1 (stereo not drawn)	10.8%
COc1ccc(NC(C)=O)cc1S(=O)(=O)NC(Cc1ccccc1)C(=O)NCc1ccccc1C (stereo not drawn)	-13.1%
CC(C)(C)NC(=O)c1nc2ccccc2s1	-6.99%
Cn1c(=O)c2cc(S(=O)(=O)NCCC(=O)Nc3ccc(F)cc3F)ccc2n(C)c1=O	12%
Cc1ccc(-n2[nH]c(C)c(/C=N/n3c(C)nc4ccccc4c3=O)c2=O)cc1	-0.523%
CCc1c(-c2ccccc2)nc2nc(C)c(C)nn12	-14.1%
COc1ccc(OC)c(NC(=O)CSc2nc(C)cs2)c1	-16.1%
Cc1ccc(S(=O)(=O)NN2C(=O)c3ccccc3NC2(C)C)cc1	4.2%
Cn1cc(C(=O)C(=O)NCCc2ccccc2)c2ccccc21	5.73%
Cc1ccc(-c2noc(CN3CCN(C(c4ccccc4)c4ccccc4)CC3)n2)cc1	7.84%
O=C(NCc1cccnc1)c1ccc2c(c1)N(Cc1ccccc1)CCS2	-25.4%
COc1ccc2c(c1)C(=O)CC(c1ccc(OC)c(OC)c1)O2 (stereo not drawn)	8.18%
CCn1cc(C(=O)N[C@@H](C)C(=O)NCCCN2CCOCC2)c(=O)c2cc3c(cc21)OCO3	22.5%
